From the supplement of paper PMC10126150
Values marked as one replicate rest on one cluster of the flow cell; about a third of the high ones do not repeat.

Test system: ATP
Experiment: switch fluorescence ratio, 500 uM ATP over buffer (Cy3 cluster intensity, sum of 5 cycles each) (fold (ratio)); higher = stronger signal-on switching upon ATP binding; sequences stand for … in TCGTCGGCAGCGTCAGATGTGTATAAGAGACAGTTTTTTTTTTTTTTTTTTTTTTTTT…TC
Details: aptamer strand: ATP DNA aptamer (quencher-CACCTGGGGGAGTATTGCGGAGGAAGG + anchor), 100 nM annealed; ATP concentration: 500 uM; one replicate
In short: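 The quencher-labelled ATP aptamer, at 100 nM, was annealed to Cy3-labelled switching-strand clusters on a modified Illumina MiSeq flow-cell. The clusters were imaged in selection buffer, then after 15 min with 500 uM ATP at 22 °C, and this buffer/ATP cycle ran five times with NaOH stripping and re-annealing between runs. Per-cluster fluorescence ratios, summed target-cycle over summed buffer-cycle Cy3 intensity, were averaged per switch-domain sequence. Clusters outside 100-1000 RFU were excluded.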
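Also: ATP exposure 15 min at 22 °C before imaging.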

| Sequence | switch fluorescence ratio |
| --- | --- |
| GGGACATCGC | 0.998 |
| GGGCGTAGCG | 1.07 |
| AACAAGGCGG | 0.988 |
| ACCACGCG | 1.03 |
| AGTCAGTTCG | 0.988 |
| TGCTGTTTGT | 1 |
| GAGACAGCGT | 0.984 |
| TACGCGTACG | 1.07 |
| CAAAATGGTT | 0.983 |
| GTCCGAGCCG | 0.96 |
| CTTCCTGGAG | 1.3 |
| AAATTCAGGA | 1.03 |
| TGTTCTTACT | 1.03 |
| CGAGAAAGT | 0.988 |
| ATGATATTCC | 1.13 |
| CGTCCGAGCT | 1.22 |
| TAATTGACAA | 1.09 |
| TTTGCTCTCT | 1.21 |
| GTTGCCGCGG | 1 |
| GGTGAACGAT | 1.01 |
| CGAAAATGTT | 1 |
| GACGGGTGTT | 0.989 |
| TAAAAGAATC | 1.01 |

| Sequence | switch fluorescence ratio |
| --- | --- |
| AGCAAGCCGG | 0.966 |
| AACACCCCAT | 1.01 |
| GGGGAGTCCG | 0.927 |
| TTTAGGACAC | 1.01 |
| TCATGGGCCT | 1.03 |
| GCAGTACCTA | 1.1 |
| ACAGGGTGTG | 1.02 |
| GACACTGGTC | 0.983 |
| CGCAATGATT | 3.52 |
| GAGTCGGTTT | 0.983 |
| AAAGAGACGT | 0.998 |
| GGAACATGT | 0.965 |
| AGAGGTACGC | 0.968 |
| CTTATGGCCG | 0.954 |
| CAGCGGGTGA | 1.05 |
| CTTTACCTTG | 0.983 |
| GGCGGAAAAG | 0.992 |
| ATGTTTGGTT | 0.979 |
| ATGCGTATTG | 0.981 |
| TATGCCGGGT | 0.965 |
| TGTTACTCCA | 1.12 |
| GATTGTTAGC | 1.01 |
| CTTGTTTTAG | 0.956 |

| Sequence | switch fluorescence ratio |
| --- | --- |
| GGCGAAGGTT | 1.05 |
| GAGAGTGCTT | 1.02 |
| GGTATGTGGC | 0.938 |
| GTAGAGCCAG | 0.983 |
| AAAAAATGAC | 1.02 |
| GCCCTATCG | 1.02 |
| TTGCATTGTT | 0.982 |
| GGGCTACCTT | 1 |
| CCTACGGCAT | 2.71 |
| GTTTACACGG | 1 |
| CTGTTGGCTG | 0.938 |
| ATGGAGGAA | 1.08 |
| CAACTGAGG | 1.07 |
| AACTCCAAGA | 1.55 |
| GTAGGCGCGT | 0.987 |
| TCCTATGCAT | 4.21 |
| TACGAGAGGC | 1.07 |
| ATTCGCGAAT | 1.18 |
| CTCAACTTAT | 1.02 |
| GGGCTAGCGA | 0.958 |
| CTACACATGG | 1.06 |
| CGAATAAATT | 0.984 |
| TCTCGCCCGT | 0.97 |

| Sequence | switch fluorescence ratio |
| --- | --- |
| CAAGGGGCCG | 1.04 |
| ACCCAATGTC | 1.24 |
| ACGGGCTTGA | 1.07 |
| AAACTGCGAT | 1.1 |
| TTAGGGGACT | 1.24 |
| AGTATAACCT | 1.65 |
| CGCACGTCGA | 1.05 |
| GCCTCTAGTT | 1.01 |
| TGCTGATCAC | 1.01 |
| GTCAGGCAGT | 1.03 |
| GACCGAAGCT | 1.25 |
| GGGTATATAT | 1.02 |
| CTATCACTAC | 1.09 |
| CGACTCCCAC | 2.73 |
| ATGTGCG | 0.996 |
| TCAAAGGCCC | 1 |
| ATCCCAGAGG | 1.09 |
| TCAGGCGGTT | 0.974 |
| AGTTGTGTTC | 0.934 |
| TTGGTGAGTC | 1.01 |
| AAGAGCGGAT | 0.978 |
| AATGTAGCAA | 2.82 |
| ACAGTTGGAG | 0.97 |

| Sequence | switch fluorescence ratio |
| --- | --- |
| ACGATCACGG | 1.26 |
| TCCACGTATA | 1.25 |
| TCTACCGCTT | 2.53 |
| CTTAGAGCTA | 0.992 |
| AAGTGGACGT | 0.939 |
| TACTGATCTG | 1.01 |
| GCATGCATAT | 0.984 |
| ACATTGTCGG | 0.973 |
| GGGGAAGTGT | 1 |
| GATATTGTCG | 1.08 |
| CGCATGTAAT | 1.08 |
| ATCCGCCTTC | 1.4 |
| GTGGCACCTT | 1.03 |
| GGCGAAGGA | 0.943 |
| GAGTAAATAT | 1 |
| GACTCCGTCG | 1.09 |
| AAGGGATAAA | 0.963 |
| GACGCTCTTT | 0.995 |
| TTAGACTTTA | 1.02 |
| CACTTGTGAA | 0.977 |
| ATGCATAATA | 1.02 |
| ATGCCTATTG | 0.995 |
| CAATGTAGA | 0.971 |

| Sequence | switch fluorescence ratio |
| --- | --- |
| GCAGCATGAG | 1.32 |
| GATTTATGTG | 1 |
| GCCAGTCCGC | 1.1 |
| CCACGACGTG | 0.986 |
| GCGGATTGTC | 1.02 |
| TAGACTCGAC | 1.02 |
| GTGGAGACC | 1.03 |
| AGGAATCATC | 1.01 |
| CCCGATGTCT | 0.971 |
| GGCCCGCAGG | 1.1 |
| AGTGGATATC | 0.916 |
| GCTCATGCGT | 1.06 |
| CAATATAAGG | 0.995 |
| CTATTTACCT | 1.18 |
| GGGAGAGGG | 0.901 |
| CTCCCGGGCC | 1.21 |
| TACATAGCCG | 1.15 |
| CTTTGCCACA | 1.08 |
| GACAAACGG | 1.14 |
| ACATATCTCT | 1.09 |
| GAAGTCAGCG | 0.966 |
| ATCATACGCA | 1.98 |
| TACAGATCGT | 0.959 |

| Sequence | switch fluorescence ratio |
| --- | --- |
| TACTCGGCAC | 3.89 |
| TACATCTCCT | 0.97 |
| CGAAAGGCTC | 1.35 |
| TGATATTTG | 0.968 |
| TAGTCTTAGT | 0.995 |
| AAATGCTGTG | 1.04 |
| TGAACCGATT | 0.985 |
| CCCTTCCTAG | 1.96 |
| ATTGATAACT | 0.998 |
| CCGTTGGAAG | 1.04 |
| AATAACAAGA | 1.06 |
| ATATCTGGTC | 0.904 |
| GTTACTGGTT | 1.09 |
| AGATGAGCCA | 0.97 |
| AAGTATTTAC | 1.03 |
| GGGAGGTTCG | 1.11 |
| CGGTCCTGTA | 0.997 |
| GATCCTGTAT | 1.01 |
| ATGACCGGAA | 1.03 |
